{
  "source": "ChEMBL document CHEMBL4184142",
  "about": "“A Naturally Occurring Isoform-Specific Probe for Highly Selective and Sensitive Detection of Human Cytochrome P450 3A5” (J Med Chem, 2017)",
  "proteins": {"B1": {"name": "Cytochrome P450 3A4 (Homo sapiens) (protein)", "chain": "MALIPDLAMETWLLLAVSLVLLYLYGTHSHGLFKKLGIPGPTPLPFLGNILSYHKGFCMFDMECHKKYGKVWGFYDGQQPVLAITDPDMIKTVLVKECYSVFTNRRPFGPVGFMKSAISIAEDEEWKRLRSLLSPTFTSGKLKEMVPIIAQYGDVLVRNLRREAETGKPVTLKDVFGAYSMDVITSTSFGVNIDSLNNPQDPFVENTKKLLRFDFLDPFFLSITVFPFLIPILEVLNICVFPREVTNFLRKSVKRMKESRLEDTQKHRVDFLQLMIDSQNSKETESHKALSDLELVAQSIIFIFAGYETTSSVLSFIMYELATHPDVQQKLQEEIDAVLPNKAPPTYDTVLQMEYLDMVVNETLRLFPIAMRLERVCKKDVEINGMFIPKGVVVMIPSYALHRDPKYWTEPEKFLPERFSKKNKDNIDPYIYTPFGSGPRNCIGMRFALMNMKLALIRVLQNFSFKPCKETQIPLKLSLGGLLQPEKPVVLKVESRDGTVSGA"}},
  "substrate": "COc1cc2c(c(OC)c1OC)-c1c(cc(O)c(OC)c1OC)C[C@H](C)[C@](C)(O)[C@H]2OC(=O)c1ccccc1",
  "test": "Substrate activity at recombinant human CYP3A4 expressed in bactosomes assessed as Km for 2-O-demethylation after 20 mins by Eadie-Hofstee plot method",
  "type": "ADME",
  "data": [
    {"protein": "B1", "values": [
      {"measurement": "Km", "value": 5.3, "unit": "µM"},
      {"measurement": "Vmax", "value": "2.46e-06", "unit": "µmol/min"}
    ]}
  ]
}
